The campaign covered roughly 310,000 compounds. About 2,200 (0.71%) showed an effect of 50% or more. The effect is printed as a negative number. Some of the results follow.
These compounds were tested against human ether-à-go-go-related gene (hERG) potassium channel (human, UniProt Q12809) (assay: primary screen, population patch clamp on CHO cells stably expressing hERG).
human ether-à-go-go-related gene (hERG) potassium channel, sequence (Q12809 whole entry, looked up): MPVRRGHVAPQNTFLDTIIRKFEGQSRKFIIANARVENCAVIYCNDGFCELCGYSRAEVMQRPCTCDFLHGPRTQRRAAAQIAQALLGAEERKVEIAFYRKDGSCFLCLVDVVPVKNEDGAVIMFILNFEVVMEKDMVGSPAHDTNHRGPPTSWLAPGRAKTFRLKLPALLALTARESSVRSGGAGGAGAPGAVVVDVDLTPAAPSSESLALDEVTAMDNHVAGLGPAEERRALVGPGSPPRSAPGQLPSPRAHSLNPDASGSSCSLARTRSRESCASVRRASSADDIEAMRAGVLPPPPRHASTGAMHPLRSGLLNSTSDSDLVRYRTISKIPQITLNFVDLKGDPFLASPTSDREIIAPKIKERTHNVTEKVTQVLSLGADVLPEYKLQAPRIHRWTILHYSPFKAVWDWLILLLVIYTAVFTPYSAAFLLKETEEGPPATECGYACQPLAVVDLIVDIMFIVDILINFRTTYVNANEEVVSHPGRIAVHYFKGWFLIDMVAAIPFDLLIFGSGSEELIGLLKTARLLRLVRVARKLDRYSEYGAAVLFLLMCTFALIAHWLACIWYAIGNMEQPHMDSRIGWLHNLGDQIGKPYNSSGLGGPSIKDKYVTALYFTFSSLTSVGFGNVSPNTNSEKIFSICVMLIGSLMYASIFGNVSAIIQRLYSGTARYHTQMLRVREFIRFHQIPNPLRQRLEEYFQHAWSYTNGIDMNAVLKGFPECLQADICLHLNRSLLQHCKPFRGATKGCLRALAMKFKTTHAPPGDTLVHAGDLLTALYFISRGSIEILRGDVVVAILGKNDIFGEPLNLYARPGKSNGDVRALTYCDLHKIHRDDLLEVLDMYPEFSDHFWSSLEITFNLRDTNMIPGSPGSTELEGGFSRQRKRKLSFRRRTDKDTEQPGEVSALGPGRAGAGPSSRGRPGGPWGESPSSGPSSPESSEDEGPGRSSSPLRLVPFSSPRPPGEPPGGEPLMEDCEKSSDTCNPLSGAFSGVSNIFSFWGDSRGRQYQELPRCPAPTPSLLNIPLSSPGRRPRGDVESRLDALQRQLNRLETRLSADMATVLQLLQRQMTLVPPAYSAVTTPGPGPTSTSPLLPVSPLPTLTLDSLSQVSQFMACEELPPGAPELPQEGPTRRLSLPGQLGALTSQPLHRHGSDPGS
In the case of `O=[N+]([O-])c1ccc(OCCCn2cncn2)cc1`, the “hERG current change (%, negative = inhibition) at 1uM” value is reported as 3.18%. With `Cc1csc(-c2cnn(-c3ccccc3)c2NC(=O)c2ccccc2)n1` the “hERG current change (%, negative = inhibition) at 1uM” value was 11.4%. With `O=C(NCC(c1ccco1)N1CCCC1)c1cccc(NS(=O)(=O)c2ccccc2)c1` (stereo not shown) the “hERG current change (%, negative = inhibition) at 1uM” value was 2.07%. For `C/C(=N\NC(=O)c1c[nH]c2ccccc12)c1ccc(C)s1`, the “hERG current change (%, negative = inhibition) at 1uM” value was 0.576%. In the case of `O=C(O)C1CCC(CNCc2ccccc2Cl)CC1` (stereo not shown), the “hERG current change (%, negative = inhibition) at 1uM” value is reported as 1.77%. For `COc1ccc(NC(=O)Cn2nnc(-c3ccccc3NC(=O)C3CC3)n2)cc1`, the “hERG current change (%, negative = inhibition) at 1uM” value was 3.7%. In the case of `COC(=O)C1=C(C)NC(C)=C(C(=O)OC)C1C(=O)OCC(=O)N1c2ccccc2CC1C` (stereo not shown), the “hERG current change (%, negative = inhibition) at 1uM” value is reported as 8.89%. In the case of `CCCc1cc(C(=O)Nc2cccnc2)no1`, the “hERG current change (%, negative = inhibition) at 1uM” value is reported as 9.6%. For `CCN1CCc2c(sc(NC(=O)COc3ccccc3)c2C(=O)OC)C1.Cl`, the “hERG current change (%, negative = inhibition) at 1uM” value was -22.2%. `COc1cccc(/C(C#N)=C/c2c(-c3ccc(Cl)cc3)nc3c(C)cccn23)c1` was tested, and the “hERG current change (%, negative = inhibition) at 1uM” value was 16.7%. For `O=C(NC1CC1)c1cccc(NC(=O)c2cn3ccccc3n2)c1`, the “hERG current change (%, negative = inhibition) at 1uM” value was -5.66%. With `CSc1ncccc1C(=O)NNC(=O)c1ccc(NS(=O)(=O)c2cccs2)cc1` the “hERG current change (%, negative = inhibition) at 1uM” value was 12.2%. For `Cc1ccc(CC(=O)NC(C)CCc2ccccc2)cc1` (stereo not shown), the “hERG current change (%, negative = inhibition) at 1uM” value was 8.53%. For `Cc1cccc(-n2nnc(C(=O)NCc3ccccc3Cl)c2N)c1`, the “hERG current change (%, negative = inhibition) at 1uM” value was 4.35%. `COc1ccc(NC(=O)C(C)N(C)Cc2ccc3ccccc3c2)cc1` (stereo not shown) was tested, and the “hERG current change (%, negative = inhibition) at 1uM” value was -4.45%. `O=C(CO/N=C/c1ccccc1O)NNC(=O)c1ccccc1Cl` was tested, and the “hERG current change (%, negative = inhibition) at 1uM” value was 15.3%. In the case of `Cn1c(=O)c2cnc(-c3ccc(C(F)(F)F)cc3)nc2n(C)c1=O`, the “hERG current change (%, negative = inhibition) at 1uM” value is reported as 24.2%. In the case of `COc1ccc2c(c1)c(C(=O)N/N=C/c1cccs1)c(C)n2C`, the “hERG current change (%, negative = inhibition) at 1uM” value is reported as 6.59%. With `CC(=O)NS(=O)(=O)c1ccc(NC(=O)c2cc3c(=O)n4ccccc4nc3s2)cc1` the “hERG current change (%, negative = inhibition) at 1uM” value was 3.59%. In the case of `NC(=O)NC(=O)COC(=O)CNS(=O)(=O)c1ccc(F)c(F)c1F`, the “hERG current change (%, negative = inhibition) at 1uM” value is reported as 12.2%. `CCc1ccc(-c2nc(CS(=O)CC(=O)O)c(C)o2)cc1` (stereo not shown) was tested, and the “hERG current change (%, negative = inhibition) at 1uM” value was 9.1%. In the case of `Cc1cccc(N2CCN(C(=O)c3ccnn3C)CC2)c1C`, the “hERG current change (%, negative = inhibition) at 1uM” value is reported as 10.4%. For `C/C(=N\NC(=O)c1ccc(Cl)cc1)c1ccccn1`, the “hERG current change (%, negative = inhibition) at 1uM” value was 8.17%. With `CCc1cc(=O)oc2cc(C)cc(OCC(=O)NCCN3CCOCC3)c12` the “hERG current change (%, negative = inhibition) at 1uM” value was 10.8%. For `Cc1ccc(Nc2nc(Oc3ccc(=O)[nH]n3)nc(N(C)C)n2)cc1`, the “hERG current change (%, negative = inhibition) at 1uM” value was 0.276%.
